# The supplement of paper PMC8512760
# Some of the results follow. Most values come without repeats; read them as rough.
# Tested on: SUM-149
# Test: cell viability relative to vehicle (% of vehicle); basal-like triple-negative breast cancer lines; higher = less cytotoxic
# Settings: 10 µM; 72 h
# 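Further: stably firefly luciferase-GFP labeled cells in 96-well plates, viability read as luciferase photon flux after d-luciferin addition, treated wells normalized to vehicle wells, single-dose high-throughput screen.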
row,SMILES,cell viability
1,COc1ccnc(C[S+]([O-])c2nc3cc(OC(F)F)ccc3[nH]2)c1OC (stereo unspecified) [Pantoprazole],95
2,CC(S)C(=O)NCC(=O)O (stereo unspecified) [Tiopronin (Thiola)],95.2
3,CN1CCN(c2c(F)cc3c(=O)c(C(=O)O)cn4c3c2OCN4C)CC1 [Marbofloxacin],148
4,CS(=O)(=O)c1ccc(C(O)C(CO)NC(=O)C(Cl)Cl)cc1 (stereo unspecified) [Thiamphenicol],112
5,Cc1ncc(C[n+]2csc(CCO)c2C)c(N)n1.Cl.[Cl-] [Thiamine HCl (Vitamin B1)],63.1
6,Nc1nc(=O)c2c(CCc3ccc(C(=O)NC(CCC(=O)O)C(=O)O)cc3)c[nH]c2[nH]1.O.[Na+] (stereo unspecified) [Pemetrexed disodium hemipenta hydrate],144
7,CCCCC1C(=O)N(c2ccccc2)N(c2ccccc2)C1=O [Phenylbutazone],113
8,CO[C@H]1O[C@@H]2OC3(C)CC[C@H]4[C@H](C)CC[C@@H]([C@H]1C)[C@@]24OO3 [Artemether],102
9,CC(C)(C)NC(=O)NC(C(=O)N1CC2C(C1C(=O)NC(CC1CCC1)C(=O)C(N)=O)C2(C)C)C(C)(C)C (stereo unspecified) [Boceprevir],140
10,CC(CCC(=O)O)C1CCC2C3CCC4CC(O)CCC4(C)C3CCC12C (stereo unspecified) [Lithocholic Acid],97.5
11,CC(C(=O)[O-])c1cccc(Oc2ccccc2)c1.CC(C(=O)[O-])c1cccc(Oc2ccccc2)c1.[Ca+2] (stereo unspecified) [Fenoprofen Calcium],115
12,Cc1c(O)cccc1C(=O)NC(CSc1ccccc1)C(O)CN1CC2CCCCC2CC1C(=O)NC(C)(C)C (stereo unspecified) [Nelfinavir],88.3
13,CCC(=C(c1ccccc1)c1ccc(OCCN(C)C)cc1)c1ccccc1.O=C(O)CC(O)(CC(=O)O)C(=O)O [Tamoxifen Citrate],98.6
14,CN1CCN(CCCN2c3ccccc3Sc3ccc(Cl)cc32)CC1 [Prochlorperazine],70.4
15,CN(C)CC(c1ccc(O)cc1)C1(O)CCCCC1 (stereo unspecified) [Desvenlafaxine],98.6
16,CCCCOc1cc(C(=O)OCCN(CC)CC)ccc1N.Cl [Oxybuprocaine HCl],112
17,CS(=O)(=O)Nc1ccc([N+](=O)[O-])cc1Oc1ccccc1 [Nimesulide],124
18,Cc1ncc(CO)c(CO)c1O.Cl [Pyridoxine HCl],111
19,CC(=O)O.C[C@H](N)C(=O)O.NCCCC[C@H](N)C(=O)O.N[C@@H](CCC(=O)O)C(=O)O.N[C@@H](Cc1ccc(O)cc1)C(=O)O [glatiramer acetate],84.8
20,CC(C)NCC(O)c1ccc(O)c(O)c1.Cl (stereo unspecified) [Isoprenaline HCl],89.8
21,COC(=O)Nc1nc2ccc(C(=O)c3ccc(F)cc3)cc2[nH]1 [Flubendazole],122
22,CC1CC2C3CCC4=CC(=O)C=CC4(C)C3(Cl)C(O)CC2(C)C1(OC(=O)c1ccco1)C(=O)CCl (stereo unspecified) [Mometasone furoate],185
23,COc1ccc(C=Cc2cc(OC)c(OC)c(OC)c2)cc1OP(=O)([O-])[O-].[Na+].[Na+] [Fosbretabulin (Combretastatin A4 Phosphate (CA4P)) Disodium],162
24,Nc1nc(NC2CC2)c2ncn(C3C=CC(CO)C3)c2n1.O=S(=O)(O)O (stereo unspecified) [Abacavir sulfate],83.3
25,CCC1=CC2CN(C1)Cc1c([nH]c3ccccc13)C(C(=O)OC)(c1cc3c(cc1OC)N(C)C1C(O)(C(=O)OC)C(OC(C)=O)C4(CC)C=CCN5CCC31C54)C2.O=C(O)C(O)C(O)C(=O)O.O=C(O)C(O)C(O)C(=O)O (stereo unspecified) [Vinorelbine ditartrate],88.2
26,O=C1NC([O-])=NC1(c1ccccc1)c1ccccc1.[Na+] [Phenytoin sodium],105
